Results published in the RNAGym collection of RNA variant scans (doi:10.1073/pnas.2313332121).
Variants at the floor of the assay are shown more often than the library holds them.

B1: TPR 5TU (parent)
chain: GGAUCUUCUCGAUCUAACAAAAAAGACAAAUCUGCCACAAAGCUUGAGAGCAUCUUCGGAUGCAGAGGCGGCAGCCUUCGGUGGCGCGAUAGCGCCAACGUUCUCAACUAUGACACGCAAAACGCGUGCUCCGUUGAAUGGAGUUUAUCAUG

Variants of: B1
Assay: polymerase ribozyme fitness, log enrichment relative to wild type (log ratio); higher = more active; in vitro selection for triplet polymerase activity
How it was run: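 Each subunit of a heterodimeric triplet polymerase ribozyme was mutagenized into a library by PCR, transcribed, and subjected to one round of in vitro selection, run in triplicate. Libraries were annealed with a biotinylated primer, the partner subunit and triplets, incubated frozen at −7 °C, and extended constructs were gel-excised, captured on streptavidin beads and recovered by RT-PCR. Input and output libraries were sequenced on Illumina, keeping genotypes with ≥10 input reads and ≥1 read per output. Fitness is log base 2 of genotype enrichment divided by wild-type enrichment, from inverse-variance-weighted replicate averages.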

G42U A47C C87A U104G A107G and C43U G58C C95A U102C C103G C105G A110U cannot be ordered by “polymerase ribozyme fitness (log ratio)” value: at most -4.2 for the first, at most -4.2 for the second.

A41C G58C A64C G86U G117A C132A and C43U A47C C54A G86A G94U cannot be ordered by “polymerase ribozyme fitness (log ratio)” value: at most -4.2 for the first, at most -4.2 for the second.

C43G U44G C87G C116G and C43A G68A C95A A98U C125G cannot be ordered by “polymerase ribozyme fitness (log ratio)” value: at most -4.2 for the first, at most -4.2 for the second.

G42A G71A and G42U G74C C85U G136A U144G cannot be ordered by “polymerase ribozyme fitness (log ratio)” value: at most -4.2 for the first, at most -4.2 for the second.

G42A U44A A52G C69A A107G A120U C123U G133C G140U and A41G G94U C125U G141A A150C cannot be ordered by “polymerase ribozyme fitness (log ratio)” value: at most -4.2 for the first, at most -4.2 for the second.

G42A C57U G94U C108U U109C A115U and U44A A47U G80C C93G G141C cannot be ordered by “polymerase ribozyme fitness (log ratio)” value: at most -4.2 for the first, at most -4.2 for the second.

C43G C54U U78A and A41C G140A A142U A150G cannot be ordered by “polymerase ribozyme fitness (log ratio)” value: at most -4.2 for the first, at most -4.2 for the second.

Going from A41C G94C to G42C A60G G92U C105G U111C A115C G133C U134C, the “polymerase ribozyme fitness (log ratio)” value falls from -1.8 to at most -4.2.

G42A G59C C125G and C43G G83A G88A C149A cannot be ordered by “polymerase ribozyme fitness (log ratio)” value: at most -4.2 for the first, at most -4.2 for the second.

First: U44A G46C C75G U102A A120U U130G
Second: A41G C75G C87G U151G
The “polymerase ribozyme fitness (log ratio)” value of the first is higher: -3.99 for the first, at most -4.2 for the second.

G42C C103U G117C C125U U134G G140U and G42U C85U C125A G128A A142U cannot be ordered by “polymerase ribozyme fitness (log ratio)” value: at most -4.2 for the first, at most -4.2 for the second.

C43U C96A and C43U C96U cannot be ordered by “polymerase ribozyme fitness (log ratio)” value: at most -4.2 for the first, at most -4.2 for the second.

C43G U82G A89U and C43A C75U A106U C108U C123G G141A cannot be ordered by “polymerase ribozyme fitness (log ratio)” value: at most -4.2 for the first, at most -4.2 for the second.

First: G42U A91G G128U G133A
Second: A41G C54G G84A U148C
The “polymerase ribozyme fitness (log ratio)” value of the first is lower: at most -4.2 for the first, -3.53 for the second.

C43U G59A A110G and A41C G80A C85G A106C G141U cannot be ordered by “polymerase ribozyme fitness (log ratio)” value: at most -4.2 for the first, at most -4.2 for the second.

C43U G58A U90C C132A G143U and C43G U45G G50A C118U U145A cannot be ordered by “polymerase ribozyme fitness (log ratio)” value: at most -4.2 for the first, at most -4.2 for the second.

First: C43A A73G C93G C96U U101C G126U
Second: A41C G83A C116A
The “polymerase ribozyme fitness (log ratio)” value of the first is lower: at most -4.2 for the first, -0.205 for the second.

A41G C57A C79U G88A A98U A120C G141A and C43A C87U A119C A138C cannot be ordered by “polymerase ribozyme fitness (log ratio)” value: at most -4.2 for the first, at most -4.2 for the second.

G42C G46A G70A C105U and C43A A47C U53A A91G cannot be ordered by “polymerase ribozyme fitness (log ratio)” value: at most -4.2 for the first, at most -4.2 for the second.

First: A41U C54A G59A C85G
Second: C43U G59A C96A G117A A121U G126U U139C
The “polymerase ribozyme fitness (log ratio)” value of the first is higher: -3.6 for the first, at most -4.2 for the second.

G42A G50C C93G A138G and G42A U44G U56A G81C C85A G117U cannot be ordered by “polymerase ribozyme fitness (log ratio)” value: at most -4.2 for the first, at most -4.2 for the second.

First: G42A G58A U135C U139C A142C A147G
Second: A41C U56A U82A A150G
The “polymerase ribozyme fitness (log ratio)” value of the first is lower: at most -4.2 for the first, -1.45 for the second.

G42U G59U G92U and G42C A47G A73U C95A cannot be ordered by “polymerase ribozyme fitness (log ratio)” value: at most -4.2 for the first, at most -4.2 for the second.

Going from G42U A110G A113C C123A to A41G G59A U61A, the “polymerase ribozyme fitness (log ratio)” value rises from at most -4.2 to -0.462.

Compared with A41G U55A C93U, A41G G88A U104A A106G is lower in “polymerase ribozyme fitness (log ratio)” value: -0.68 for the first, at most -4.2 for the second.

G42C U55A A64G C79G A89U C93G and U44A A47C C69A A89C G92A A110U C118G cannot be ordered by “polymerase ribozyme fitness (log ratio)” value: at most -4.2 for the first, at most -4.2 for the second.

A41G C72U C76A C87U A98U C99G A110G and C43G C105A C123G U148A cannot be ordered by “polymerase ribozyme fitness (log ratio)” value: at most -4.2 for the first, at most -4.2 for the second.

C43U U90G A91G C93U U145G and A41U G74C A91C A97U cannot be ordered by “polymerase ribozyme fitness (log ratio)” value: at most -4.2 for the first, at most -4.2 for the second.

G42A G58U G62U C75G G92A A137U and A41U U45G C87U U104G C108U cannot be ordered by “polymerase ribozyme fitness (log ratio)” value: at most -4.2 for the first, at most -4.2 for the second.

Going from U44A C85U to A41G G58C U61C U82G C87G U104G C118G G141U, the “polymerase ribozyme fitness (log ratio)” value falls from -4.17 to at most -4.2.

A41U C87A and A41U G133U U135A A142G A147U cannot be ordered by “polymerase ribozyme fitness (log ratio)” value: at most -4.2 for the first, at most -4.2 for the second.

G42A C51A G81U A91U A97U G126U and C43A A52C G94A cannot be ordered by “polymerase ribozyme fitness (log ratio)” value: at most -4.2 for the first, at most -4.2 for the second.

First: U44A A49U U78G G84U A107U
Second: A41C G83C
The “polymerase ribozyme fitness (log ratio)” value of the first is lower: at most -4.2 for the first, -0.571 for the second.

G42U G68C C96U U104A A106C U139A and C43U G65U G71U C118G A137U U151C cannot be ordered by “polymerase ribozyme fitness (log ratio)” value: at most -4.2 for the first, at most -4.2 for the second.

G42C C57U G81A and C43G U82C G83A U111G cannot be ordered by “polymerase ribozyme fitness (log ratio)” value: at most -4.2 for the first, at most -4.2 for the second.

A41U A66C C85A A122U and C43U C93U C108U A122U G143A cannot be ordered by “polymerase ribozyme fitness (log ratio)” value: at most -4.2 for the first, at most -4.2 for the second.

G42U C54U G74U C96A U130G and G42A G48A U102C C103A cannot be ordered by “polymerase ribozyme fitness (log ratio)” value: at most -4.2 for the first, at most -4.2 for the second.

C43U C57G G70A A89G C93U and G42U A47G C99G C116U cannot be ordered by “polymerase ribozyme fitness (log ratio)” value: at most -4.2 for the first, at most -4.2 for the second.

Compared with U44A A52U C63U C75A A91C C103U, A41U U82A A142C is higher in “polymerase ribozyme fitness (log ratio)” value: at most -4.2 for the first, -2.88 for the second.

A41G G42C A47C C57U G84U A89G C93A C96G U101C and A41C U53A G59U C76A A97U G126A cannot be ordered by “polymerase ribozyme fitness (log ratio)” value: at most -4.2 for the first, at most -4.2 for the second.

G42C C57G G92U U145A and A41C U55G C114U G117U C149A cannot be ordered by “polymerase ribozyme fitness (log ratio)” value: at most -4.2 for the first, at most -4.2 for the second.

G42U U44A C93U U111C G124C and A41C G68A G81U A97G A106G U109C U134G G140A cannot be ordered by “polymerase ribozyme fitness (log ratio)” value: at most -4.2 for the first, at most -4.2 for the second.
